Source: the RNAGym collection of RNA variant scans (doi:10.1073/pnas.2313332121)
This sample is rich in variants without activity.

B1: TPR 5TU (parent)
chain: GGAUCUUCUCGAUCUAACAAAAAAGACAAAUCUGCCACAAAGCUUGAGAGCAUCUUCGGAUGCAGAGGCGGCAGCCUUCGGUGGCGCGAUAGCGCCAACGUUCUCAACUAUGACACGCAAAACGCGUGCUCCGUUGAAUGGAGUUUAUCAUG

Variants of: B1
Experiment: polymerase ribozyme fitness, log enrichment relative to wild type (log ratio); higher = more active; in vitro selection for triplet polymerase activity
Summary of the method: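 Each subunit of a heterodimeric triplet polymerase ribozyme was represented by a PCR-built, transcribed mutant library that underwent triplicate single-round in vitro selection with frozen incubation at −7 °C. Extended constructs were recovered by gel excision, streptavidin-bead capture and RT-PCR, and Illumina sequencing of input and output libraries kept genotypes with ≥10 input reads and ≥1 read per output. Fitness is the logarithm of genotype enrichment relative to wild-type enrichment, from inverse-variance-weighted replicate averages, with a logarithm base of 2.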

Variant | polymerase ribozyme fitness (log ratio)
C14U U53G G84U C87G A98U U135G G140U | ≤ -4.2
U15C A49C G80C C85A C96U | ≤ -4.2
C14U G88A | -4.2
U15A A24C C27A U55A G86A | ≤ -4.2
C14G C35U A49C G92A | ≤ -4.2
C14G A28U G46A U61A A64C G112A A122G | ≤ -4.2
C14G A39U A89U C125U G140A U144A | ≤ -4.2
U15A G42C C93G A142C | ≤ -4.2
U15C C85U U102G U130C G133A | ≤ -4.2
C14G C27A A37U C54U G67A G94U C105G | ≤ -4.2
C14U G59U | -1.23
C14G A52C C54A C79A C87U A107G U111G C116A C118U U139A | ≤ -4.2
C14U A21C G67U U77A C85G C96U U127G | ≤ -4.2
C14U A21C G67U U77A C85G C96U G152A | ≤ -4.2
C14G C75A G83A C95A A110U A115G | ≤ -4.2
U15A C18G C27U U55A G86A C96G U104A A150G | ≤ -4.2
C14U A64G | -4.17
C14G G70A G86A U90G C93G A110U C114U U134A | ≤ -4.2
U15A C38U C54U C95G G141A | -1.16
U15C U45A C87U C132G U139C G143A U145G | ≤ -4.2
U15C A24G A39G G83A C99G | ≤ -4.2

Variant | polymerase ribozyme fitness (log ratio)
U15C A28U C54G C99A | ≤ -4.2
C14G U61A G81A C85A C99U | ≤ -4.2
C14U G25C C43G G48U U55G U56A G86U C87A A107U | ≤ -4.2
C14G A110G G117C | ≤ -4.2
C14U A19C U53C C69U C72U G83A C85U | ≤ -4.2
C14U G50U A91U C95G C99U A110G G117A | ≤ -4.2
C14G U33A A39G C131A | ≤ -4.2
C14G A47C C54G U56A C93A C108U G124U G128A | ≤ -4.2
C14G U15G G46A A49G G84U A106G | ≤ -4.2
C14G A52G G141C | -3.34
C14U A24C C93U | ≤ -4.2
C14G U15G A20G A26U C72U G140A | ≤ -4.2
C14G C38U C95G A106C | -4.14
C14G C18U C32A U56G U61G G124A | ≤ -4.2
U15G A16C A17C A40C C93U C99G G100A A110C A138U | ≤ -4.2
C14G A89G G117C G133U | ≤ -4.2
C14U C43U U55G C87U C108A G133C | ≤ -4.2
C14G U15A G68C G83A U111C | ≤ -4.2
U15C U44A A52G C72G C85G G88C | ≤ -4.2
U15G A17G A23C G25C U31C G46U U61A C99G C108A C125G | ≤ -4.2
C14U G92C G136A | -2.51

Variant | polymerase ribozyme fitness (log ratio)
C14G U15C C18U A39U A49C G80C A110C | ≤ -4.2
C14G C57A | -1.52
C14G C57U | -2.06
C14G A52G U101G A107U | ≤ -4.2
C14G A66G C76A G100C G141A U144C | ≤ -4.2
C14U G48C C51U C75A C93G | ≤ -4.2
U15A G80A A91C A120G | ≤ -4.2
C14G G74C U77G A142G | ≤ -4.2
C14U A19G A22C G84U C123G | ≤ -4.2
C14U G71A C95U | ≤ -4.2
C14U A19U C27A C36A A47U | ≤ -4.2
U15A G50A U109G A110G | ≤ -4.2
U15A A20U C54G G81A C114U C123G | ≤ -4.2
C14G A47C | -2.35
C14U A30G A64G U78A G92C U101C G126A | ≤ -4.2
C14G C51G G68A C95U U127C | ≤ -4.2
C14G C54A U56A C95G C99U | ≤ -4.2
C14G G48A G58C | ≤ -4.2
C14G C54A C63A U111C A137U G141C | ≤ -4.2
C14U C51G U53A C75U U130G | ≤ -4.2
U15A G42C G83A A107G C114G C118A G133A | ≤ -4.2

Variant | polymerase ribozyme fitness (log ratio)
U15A C36A A60C C103A A107U A115G C116U A142C | ≤ -4.2
C14U G92A C99U G141U | ≤ -4.2
U15A A23U C87A C125G G141U | ≤ -4.2
C14G U45C A49C G74U G83C | ≤ -4.2
C14G G133C | ≤ -4.2
C14U U53A U56A | -2.46
C14G C18U G42C U44C U82G C85A | ≤ -4.2
C14G A39U C57G | -4.06
C14G C35U C54G G133C | ≤ -4.2
C14U A28U C54G G59A U61A G80C G133C | ≤ -4.2
C14G U56G G68U G81A G84A A91C U135C | ≤ -4.2
C14G G81A C87U A106C G140U | ≤ -4.2
C14U A30C C32U C87U U151G | ≤ -4.2
C14U A60U C96G | ≤ -4.2
C14U A52C U53A | ≤ -4.2
U15A A29U G59U C95U A120G U127G U135C G143A | ≤ -4.2
C14G C18G U53A C93U U109G | ≤ -4.2
C14U A29U U53G G92A U134G | ≤ -4.2
C14U A23G C69G G80U C103G | ≤ -4.2
U15C A23U G46C G86A C87A G88A G136A | ≤ -4.2
C14U C38U U53A G70A C93U A107G U139C | ≤ -4.2
